According to the supplement of paper PMC11417369:
± gives the standard deviation of the averaged measurements. The list shows a part of the results.

Test system: PfAP2-G AP2 domain (GST-tagged)
Assay: gcPBM binding intensity (ln(normalized median fluorescence intensity)); higher = stronger DNA binding
Outline: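 GST-tagged P. falciparum DNA-binding domains produced in E. coli were incubated for 1 h on an Agilent 4 × 180k array of primer-extended double-stranded 36-bp intergenic genomic probes with negative controls. Binding intensity is the highest Masliner-normalised natural-log median intensity across replicate spots of either probe orientation, with bound protein detected by Alexa488 anti-GST antibody at 488 nm.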

| Sequence | gcPBM binding intensity (ln) |
| --- | --- |
| TGTAGTCTGGAGAAAAGTACACAGTATCTGGTAACC [XGTACX_site2033] | 11.4 ± 0.94 |
| ATATAGAATAAAACTATACACACCTATATTTAAACA [CACACA_site1902] | 9.88 ± 0.042 |
| TGTAATCAAAAAAATAGTACATAAATTGTGTATACT [XGTACX_site5908] | 11.3 ± 0.81 |
| AACAAATACGAACACACACACACACTAAAAAAAAAA [CACACA_site6386] | 10.4 ± 0.42 |
| AGGATATAATACCATACACACATTTATAAAATAACA [CACACA_site1930] | 10.13 ± 0.078 |
| ATAATATGAAAACACACACACACACCCAAAAAAAAA [CACACA_site2011] | 10.4 ± 0.38 |
| CACATTAATTTTTGGGTGCACTTGGGAAATTTTGGT | 10.8 ± 0.49 |
| ATATATATTATATATATATATATATATATATATATA [CACACA_negctrl_site493] | 9.71 ± 0.59 |
| TAATAAATAAATGACACACACACACGCAAAAAAAAA [CACACA_site7275] | 10.4 ± 0.32 |
| TACGAAAAAAAAAAAAAAAAAAAAAAACACAAAAAA [CACACA_negctrl_site1643] | 9.7 ± 0.21 |
| AATACCATAATCAATGCACACATAACAAAATATTAT [CACACA_site8873] | 10.08 ± 0.071 |
| TATTTTTTTTCTTTATTTATAACGCTCAATATATTC [GTGCAC_negctrl_site265] | 9.97 ± 0.042 |
| TGGAAATATATATATATATATACATATATATATAGC [XGTACX_negctrl_site107] | 9.455 ± 0.007 |
| TTTTTATATTTTATAGTGCAAAAACTTACATAAAAT | 10.1 ± 0.28 |
| ATATAATGGACCATAGTGCATAAAAATAACAAAAAA [GTGCAC_site9558] | 10.6 ± 0.4 |
| AGAGACACTTTTTATTGTACAAGAGGAGGTTACCTT [XGTACX_site8768] | 10.8 ± 0.46 |
| TTTTAATATTTTAAGAGTACAGAAATATATAATATG [XGTACX_site4955] | 11.4 ± 0.99 |
| ATTTTATAACATTCATGTACACATTTCATTTATTTG [XGTACX_site3028] | 11.3 ± 0.77 |
| CATATAAATATATATACACACACACCGTAATACATA [CACACA_site9158] | 10.2 ± 0.078 |
| GCCATTGTACCATCCACACACATATAAATATGTATA [CACACA_site7303] | 10.9 ± 0.56 |
| TAAATATATATATACACACACACCAAAGCAATAGAT [CACACA_site2940] | 10.3 ± 0.16 |
| TTATATATACCTAAGACACACACATATATATATATA [CACACA_site8153] | 10.2 ± 0.33 |
| ATTAAATATGTCAAGTGTACAAAATGTAAAAAAAAA [XGTACX_site4119] | 11.1 ± 0.57 |

| Sequence | gcPBM binding intensity (ln) |
| --- | --- |
| TTGTTATCTACCTGTAGTACATATATTATGTAATAT [XGTACX_site735] | 11.4 ± 0.88 |
| TATGAAGAAAAGAATTGTACGATGTTTATTTTGTAT [XGTACX_site8614] | 10.8 ± 0.49 |
| TGTTAATAGAAATACGTGCACACTAAAGGGAAAACA [CACACA_site1485] | 10.6 ± 0.43 |
| TATATAACATATAACACACATACTTAGTATTACATA [CACACA_site3099] | 9.84 ± 0.057 |
| ACAGTATCAATATGGATAAAAATGTCCATATGCCTG [TGCATGCA_negctrl_site482] | 10.3 ± 0.28 |
| ATATATATATTATATGCACACTTATATTTCATTAGA [CACACA_site5439] | 9.98 ± 0.16 |
| TATTTATAAATGAACACACACGCAATTTGAATCGAA [CACACA_site3371] | 10.3 ± 0.18 |
| TTTTTATATTTCAACATATCACAATTTTATATATCT [CACACA_negctrl_site178] | 9.72 ± 0.21 |
| AACACATACAGATATGCACACATTTTATTCCATTAT [CACACA_site5565] | 9.95 ± 0.22 |
| TTTTTTATGCTAACTTCTTTTTCCTTATAAAATTGG [TGCATGCA_negctrl_site598] | 10.02 ± 0.071 |
| ATTTTTTTTATTATTACACACATATAACAAAAAAAT [CACACA_site6934] | 10.2 ± 0.26 |
| CTATATCATTTTCTAGCACACACATTGTTATTACCT [CACACA_site8204] | 10.2 ± 0.014 |
| GAATATAAACCTATTACACACATCTATATGTACATT [CACACA_site1914] | 10.9 ± 0.5 |
| AAAAAGAAAAAATATATTCGTCTATTATAAACAATA [CACACA_negctrl_site648] | 9.48 ± 0.25 |
| GAATATATATTCATATGTACACAATTTATGTATTAT [XGTACX_site4719] | 11.4 ± 0.79 |
| AAGGTAAACAGACACACACACATACAAAAAAAAAAA [CACACA_site3768] | 10.3 ± 0.52 |
| TAAATATTAACAATCGCACACATATTATTTTTCCAA [CACACA_site1626] | 9.93 ± 0.042 |
| TAAAGGCAAACAAACACACACACATAAATACAGATA [CACACA_site5204] | 10.08 ± 0.099 |
| ATATGCGTTTGCAAATGTACATATTATTTATATATA [XGTACX_site7128] | 11 ± 0.63 |
| TTTTTTGGTTTTCATGCACACAATTTATAAATCTAT [CACACA_site3106] | 10.4 ± 0.18 |
| CATTATGTTGTAAATACACACATACAGATACATACA [CACACA_site4565] | 10.3 ± 0.16 |
| ATAATTCTTTTACTGTGTACATATTATCACTTATTT [XGTACX_site2456] | 11.4 ± 0.76 |
| TGTAATTGTTTAAAGGGTACATATATCAGATGTCTT [XGTACX_site5877] | 11 ± 0.59 |

| Sequence | gcPBM binding intensity (ln) |
| --- | --- |
| ATAATAATATTTCTATGTACTTATTTTATGTATTAG [XGTACX_site1747] | 11.4 ± 0.96 |
| AAAAATTAAAATATAACTAATTAATTTGTATTCATT [CACACA_negctrl_site1633] | 9.44 ± 0.23 |
| TATAAATACTTAGAAACACACAAAAATATTTTATAA [CACACA_site7259] | 10.06 ± 0.071 |
| GTAGGGGAAAAAAAAACACACAAAAAACAACAGATC [CACACA_site1187] | 10.3 ± 0.26 |
| TTATCTCTACAAAGTGCACACACGTAAAAACATATA [CACACA_site3957] | 10.5 ± 0.4 |
| TTTTGTTTTTGTAGAGTGCATAAAGAAGATATGTAT | 10.3 ± 0.31 |
| TGGAAACAATGACACACACACAAAAAAAAAAAAAAA [CACACA_site7494] | 9.98 ± 0.45 |
| TTAGTAAATACATTTGCACACATTATTTTTTAACAT [CACACA_site5448] | 10.11 ± 0.078 |
| AGTATAGATGTATACACACACCAAACGTTAAAAAAA [CACACA_site7443] | 10.2 ± 0.14 |
| GGAAATATAAAATCATGTACATATGTATATATAATT [XGTACX_site5491] | 11.1 ± 0.61 |
| ATGAATATATATATTTGTACATATGTATATATATAT [XGTACX_site7527] | 10.9 ± 0.54 |
| TATATATTTTTTTCATGTACTTATTATATATATATA [XGTACX_site5321] | 11.4 ± 0.83 |
| AATATTATATGGACGTGTCCACATAAACCTATATAT [XGTACX_site2053] | 11.3 ± 0.75 |
| ATTTATTTATTTATATGTACTTAAATGAAAGGAATA [XGTACX_site6024] | 11.3 ± 1 |
| TTTCAAAATTTTTATTTTAAATAAACATTTATAAAA [CACACA_negctrl_site1588] | 9.575 ± 0.035 |
| CCGATATAATGGAAAACACACAAAAGATATATATAT [CACACA_site2683] | 9.95 ± 0.28 |
| ACATACATTTTTAAATGTACATATATATATATATAT [XGTACX_site6751] | 10.9 ± 0.48 |
| ATATGGCACATATGTACACACGTATAGATAATATTA [CACACA_site5162] | 11.5 ± 0.93 |
| ATATATATATATAATACACACATCATAAAATATGTA [CACACA_site2518] | 10 ± 0.33 |
| AAAATAAATTGTGAAGGTACACAAATTATTATGTGG [XGTACX_site4196] | 11.1 ± 0.64 |
| TATATTTTAAAATTATGTACATATATAGATAAATGT [XGTACX_site1349] | 11.3 ± 0.52 |
| ATATAAATATAGTGTGCACACACATAATATATATAT [CACACA_site8713] | 10.4 ± 0.25 |
| TATCATCATGTATGTACACACATACAGATATTATGT [CACACA_site4888] | 11.3 ± 0.69 |

| Sequence | gcPBM binding intensity (ln) |
| --- | --- |
| AAATACAAAATTGTTACACACATATTAATTATGACA [CACACA_site476] | 10 ± 0.13 |
| TATTTAAATGGATGCACACATGCATTAAATAAAATA [CACACA_site3433] | 10.1 ± 0.18 |
| TGTAATGTTTACAACACACAAATTATAAATACAAAA [CACACA_site5047] | 9.985 ± 0.007 |
| AATCATATTTAGATTACACACAGTTTAAATATTTTA [CACACA_site1263] | 9.71 ± 0.18 |
| TATATATATATATATATATATATATATATAATATTA [XGTACX_negctrl_site558] | 9.93 ± 0.79 |
| TTATGCAGATAAAAGAGTACATATTCGTTACATACA [XGTACX_site2849] | 11.3 ± 0.86 |
| TCGATATATAGACACACACACTTTTAATAATTAAAT [CACACA_site7726] | 10.2 ± 0.24 |
| TACAAACAGACATATACACACAAAAAAAAAATAAAA [CACACA_site2562] | 10.1 ± 0.33 |
| GTTAGCATATTAAGTTGTACACAATTATTCTTCAAT [XGTACX_site8324] | 11.6 ± 0.93 |
| TGGTATTTTGATGATAAAAGGAAATTTTTTTTATAC [XGTACX_negctrl_site111] | 10.1 ± 0.27 |
| AATATAATATAATGCACACATAAACAAAAAAAAAAA [CACACA_site783] | 10.2 ± 0.38 |
| GTAATTAAAATATATACACACAAAGGCTATTAAATA [CACACA_site1011] | 9.96 ± 0.057 |
| TATATAAAATATTAATGTACATATAAATATATATAT [XGTACX_site6656] | 11.3 ± 0.7 |
| ATTTATGAAAGAAATAGTACACACATAAACATTTGT [XGTACX_site5862] | 11.4 ± 0.87 |
| TTTAATTTTTTTAAAACACACAAATATATATATATA [CACACA_site3898] | 10.1 ± 0.67 |
| CAAAATAATATATATACACACACACCGATATATATA [CACACA_site8082] | 9.915 ± 0.021 |
| TTTAATACGAATGAGGCACACACCTAGTATACATGC [CACACA_site621] | 10.2 ± 0.11 |
| GATACATAGAAACACACACACATACATATATACATA [CACACA_site3438] | 10 ± 0.16 |
| TCACAAAAAGAACATTGATATTATTATAAAATCGTC [GTGCAC_negctrl_site177] | 9.73 ± 0.11 |
| TTTATGTACAGACATATACACACCTCTATAATATAT [CACACA_site730] | 11.1 ± 0.73 |
